Consider 22 molecules from publication PMC12136788.

This is one part of the list.

The labels stand for the following.
T1: UNK ZnF1-3 (human, UniProt Q9C0B0 31-174)
T1 sequence: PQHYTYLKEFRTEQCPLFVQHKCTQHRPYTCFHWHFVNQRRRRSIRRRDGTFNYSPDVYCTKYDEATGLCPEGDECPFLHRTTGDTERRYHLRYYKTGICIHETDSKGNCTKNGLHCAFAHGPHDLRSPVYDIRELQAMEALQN

B1: 12098148_12098268_475_CDS_ENSMUSG00000028218_ENSMUST00000108285|mouse|control|control (ssRNA)
RNA: GGGAGUUCUACAGUCCGACGAUCUUGAAGUUUGGCAAACUCAUCAGCAAAGUCUUUCAGACCCUGCUUUAAAUUUGGUGUCUCGGUAGAGGCAUACAGGUUGAUUUCGUUCACUAGGAGGUCGGCUUUGUCUCGAAGCCUGGCCAACAGAGGAUUGAGCAUCA
B2: chr1:202705475:202705476:-_ENSG00000117139_ENST00000367264|hu_hu|FALSE|FALSE (ssRNA)
RNA: GGGAGUUCUACAGUCCGACGAUCCAGUCUUGGCAAAGAAUUCAGAUGUACGGGGAUAGAUCGGCCUCGUGUAACAAGUUCUAUGAGUGUGUCUAACACUGGCACACGUCCUCCAGCCUGCAGGCCCUCUACAUCCUGAAGCCACAACAGAGGAUUGAGCAUCA
B3: chr6:24533737:24533738:+_ENSG00000112294_ENST00000357578|hu_mus|FALSE|FALSE (ssRNA)
RNA: GGGAGUUCUACAGUCCGACGAUCCAGCUGCUCCGCCACUCUCCAGAUCUGGGCCGGGUCUUGAGAGUAAAAGUAACCUGCCAAUCCAACCUCAGCUGCAUUUGCGAUGGCGACGGCCUCUUCCUCCUUAUCAAACUUGAUGACCAACAGAGGAUUGAGCAUCA
B4: 108200678_108200798_6499_CDS_ENSMUSG00000068740_ENSMUST00000090558|mouse|control|control (ssRNA)
RNA: GGGAGUUCUACAGUCCGACGAUCAAUGUUGGGUGUGACGAUGGUGAAGGGGCUUAGGUAGGUGUGCCGCAUAUUCUGGGCAAGGGCGCUGGCGUAAGCCUCAUAGUGCUGGAGCAGCCAGGCGGUGCCACCCUCUGUCUGCUGCAACAGAGGAUUGAGCAUCA
B5: chr19:8913615:8913616:-_ENSMUSG00000071658_ENSMUST00000096259|mus_hu|mus_mus_mus_hu_False|78_88 (ssRNA)
RNA: GGGAGUUCUACAGUCCGACGAUCAGGGUACCAAAACCUUCUGCCUGAGAUAGGUGCCCCACCCUGCAGGGAGUUGCAGCUGAAAGUAUCUGAUGCAGAAGCAGUGACUAUACGAAAGGAGGCCCCUGGGGAGGGCCAGGCCAGCAACAGAGGAUUGAGCAUCA
B6: 72499018_72499138_2910_3pUTR_ENSMUSG00000020794_ENSMUST00000021148|mouse|control|control (ssRNA)
RNA: GGGAGUUCUACAGUCCGACGAUCACCACUCCUACCUUCCCAGUAGUCCUUGAUCUAGCCCAAAGAAACACAAGGUUAUCCAAAGGUAAAUAAGUAUAUUACAGUGCCACUUAUAAGUUCAGAAAUAGUUGUCCCUGAGUUACUCAACAGAGGAUUGAGCAUCA
B7: chr1:163112212:163112213:-_ENSG00000143248_ENST00000313961|hu_hu|hu_hu_hu_mus_False|8_28 (ssRNA)
RNA: GGGAGUUCUACAGUCCGACGAUCUUUUAUUAUCAGUAAGAGUGAGUUACAUACUAGGCAAAGUAUUGGAUACAAUAAUCAGGAAACAAACACUAUUGGUCCAGAAUUUAAAAUAUAAUGAGCGAAGGCUUACAAAUGGACUUACAACAGAGGAUUGAGCAUCA
B8: 179628843_179630482_2732_CDS_ENSMUSG00000000305_ENSMUST00000000314|mouse|control|control (ssRNA)
RNA: GGGAGUUCUACAGUCCGACGAUCAUAGUCGAAGACUAGCAGGGAGUCGUAGGGGGGUGCGGUGGGGUCAUUGUCAGCAGCUCGGAGUCCCUCAUUAAUGAAGUCUCCAAUGUCUCCUGGGUGUGGCACCACAGGCCUGACUGGCAACAGAGGAUUGAGCAUCA
B9: chr11:9308113:9308114:-_ENSG00000166471_ENST00000528080|hu_mus|FALSE|FALSE (ssRNA)
RNA: GGGAGUUCUACAGUCCGACGAUCAUUAGGAAGAAACGGUGUGAUCCUCAAAAAUAUAAUGUAGUUAAUAAGAUGUUCUCUGUGACGCUCUACCUGCUGUGACCAUUUCACUGCCUUCUCUGUUAGGUAUUUGUAUACAACGGGCAACAGAGGAUUGAGCAUCA
B10: chr11:46405157:46405158:+_ENSG00000110492_ENST00000395566|hu_hu|hu_hu_hu_mus_False|18_68 (ssRNA)
RNA: GGGAGUUCUACAGUCCGACGAUCCCCUCCCCACUUUGGGCACUUGGUGUGGGCGUGAGAGGACAGGAUGAUUGAUUAGAGCUGACAGGAAGACAAAAGGCACUGGUGGGUUAUAUCUCGGGCCUGGGGGAGAGGAGGGCUCCGCAACAGAGGAUUGAGCAUCA
B11: 17617275_17622462_2223_CDS_ENSG00000125844_ENST00000246043|human|control|control (ssRNA)
RNA: GGGAGUUCUACAGUCCGACGAUCGCGUGCCUGCACAGCCGUGAUCUCCUGCUCCCGGGCCACCAGCUGCUUUUUCACUUUGGCCUCCCCGGCUGCUGCUUUGGCCUUUUCUGCUGCCAUCUCCUUGUUGAGCUCCCUCAGUUUCAACAGAGGAUUGAGCAUCA
B12: chr1:87185206:87185207:+_ENSG00000097033_ENST00000482504|hu_hu|motif|central (ssRNA)
RNA: GGGAGUUCUACAGUCCGACGAUCUGGGUUGUUUAUACGACUUGGAGCUUUUCUAUCCAGUUUCUCAUAAACAAAUUCUUCGGUCCUGGCAUUUGGAUUUGGCUGCAAUAACACUUCAGUUUGUUUCAUUAUUUUUUCUGUCCACAACAGAGGAUUGAGCAUCA
B13: chr18:16782857:16782858:-_ENSMUSG00000024304_ENSMUST00000115850|mus_hu|FALSE|FALSE (ssRNA)
RNA: GGGAGUUCUACAGUCCGACGAUCGGGAGGAUUACCCGAAUCUGUGAUUAUGAUGGGAACUUCAUAGAUACCAGCUUCAAGAAAUUUUAUCUUUAAAUUAAGCUGAGCAAAAUCACCAUUAAGCCGAGUGAUGGUCCAAUUUCUCAACAGAGGAUUGAGCAUCA
B14: chr4:83978449:83978450:+_ENSG00000138663_ENST00000264389|hu_mus|FALSE|FALSE (ssRNA)
RNA: GGGAGUUCUACAGUCCGACGAUCUAUUGUCUUGUAAGAGAGCUCAUUGUACCUCUGGGCGGCCUCAAUGAAUUUCCUUCUGUAAUCAAGGACACGCGCAUAGCAAACCUUAUAGUGUAUCUGUAACUGUUCAUUUGUGGAUUCCAACAGAGGAUUGAGCAUCA
B15: chr1:165697036:165697037:-_ENSG00000143183_ENST00000464650|hu_hu|FALSE|FALSE (ssRNA)
RNA: GGGAGUUCUACAGUCCGACGAUCUGAAACAAGAAGGAUGCUAUUUGUUUUUCAUUACAUAAACAUUACCUGAACUUAACUAAUCAAUCCACUUAUUUGAUAAAAAUCAUCUAGGACCAAAAGCACUAUCAAGUUUGCUGGCUGCAACAGAGGAUUGAGCAUCA
B16: chr7:54825262:54825263:-_ENSG00000132432_ENST00000352861|hu_hu|hu_hu_hu_mus_False|1_78 (ssRNA)
RNA: GGGAGUUCUACAGUCCGACGAUCCUGCCGGCUGGGCUCCACAAACUGCAUUACCUGCAUGACUGCCGUUGGAUGGCGGAUUGAGAGCGUAGAGACACGUAGCUCAGGAGAGAACCGAGCCCAACGGAACCGGAAGCGGAAUCCCAACAGAGGAUUGAGCAUCA
B17: chr18:48442549:48442550:+_ENSG00000082212_ENST00000321341|hu_hu|FALSE|FALSE (ssRNA)
RNA: GGGAGUUCUACAGUCCGACGAUCAAUUGAUCUAACAUGACCUCUGUCUGAGAUCGAAAUAAAUAAUCCCUUAGGUCUUCUAAAGAUGUGUCCAUACUGGGAGCAGGCAAGACCAACCGUCGGUGUAUAUACAAUUGGCAUUAACAACAGAGGAUUGAGCAUCA
B18: chr9:59598888:59598889:+_ENSMUSG00000039585_ENSMUST00000128341|mus_mus|FALSE|FALSE (ssRNA)
RNA: GGGAGUUCUACAGUCCGACGAUCGGACUGGGCAGGCACAUCCCCCGCCGCACCCCGCCCAGAGAGCACGCGUUGGAAGCUAAACCGCGGUCCCUGCUUUUGCCCGGGGACCGGUAUCUCCGCCGCAGUCCCUCCCCGUCCUGCCAACAGAGGAUUGAGCAUCA
B19: chr16:94664741:94664742:+_ENSMUSG00000040785_ENSMUST00000117648|mus_hu|mus_mus_mus_hu_False|1_8 (ssRNA)
RNA: GGGAGUUCUACAGUCCGACGAUCUGGUACUGAUCUUGGUAGCUGAUAUUCAGGAGAAAGGCUGGCCAAGGGUGUAUAUAUGCUGGUGUACUGGGGCAAACCUGGUAACACGUUUAUGUAUGCUGGCCGCUGGGUGAUGCCAAACAACAGAGGAUUGAGCAUCA
B20: 43876696_43876816_1016_3pUTR_ENSG00000149084_ENST00000278353|human|control|control (ssRNA)
RNA: GGGAGUUCUACAGUCCGACGAUCCAAUGCAGUUAUCAAUGCUUAGUUCUUCUUGGUUUUCUUCAGAUAGUGAGCCCGUGUAGACUUGUUCAUAUUCAUGACUAUUUUCAAAUAAAUCCAAGAAGGCAGGUUUGAGAUUAUCGACAACAGAGGAUUGAGCAUCA
B21: 77745829_77755158_922_CDS_ENSG00000085365_ENST00000538629|human|control|control (ssRNA)
RNA: GGGAGUUCUACAGUCCGACGAUCUGCUGAUGCUGUGAAAAGUGCUGCUAUGAUUAUCAUCAUGAUUCCAACAGGAAUAUUUUGGUUGAGACCAGUAAGGGAUGAAAUCCAACCACCAAUGCCCCAGUUAUGAAAUCCUGCAGCCAACAGAGGAUUGAGCAUCA
B22: chr10:33190432:33190433:-_ENSG00000150093_ENST00000302278|hu_mus|hu_hu_hu_mus_True|8_28 (ssRNA)
RNA: GGGAGUUCUACAGUCCGACGAUCUACAUUUUCCAAACCUGCAUGUGAAUAAAACCCUGGCCACAGAGCCCCAAAACUACCCUACUGUGACUAAGAUGCUGCUGCUGUUGCAUUCAGGUUGCAAAAUUUUGCACGGGAGGAUUCCAACAGAGGAUUGAGCAUCA

For this test, the target named is T1, UNK ZnF1-3. Kind of test: nsRBNS (natural sequence RNA bind-n-seq); RBNS binding buffer (assumed for nsRBNS): 25 mM Tris pH 7.5, 150 mM KCl, 3 mM MgCl2, 0.01% Triton X-100, 500 ug/ml BSA, 20 U/ml SUPERase-In, 4 C; UNK is unkempt and MSI1 is Musashi-1; names of the RNAs are library labels; protein concentration not given here; high values mean tight binding.
For B1, the binding signal stood at 0.754 enrichment R.
Molecule B2 returned a binding signal of 0.819 enrichment R.
The molecule B3 registered a binding signal of 1.35 enrichment R.
With B4, the binding signal is 0.848 enrichment R.
Turning to B5, the binding signal worked out at 1.05 enrichment R.
Regarding B6, the binding signal amounted to 1.56 enrichment R.
To B7 belongs 2.17 enrichment R; to B8, 1.05 enrichment R.
B9 gave a binding signal of 1.45 enrichment R.
B10 returned a binding signal of 2.26 enrichment R.
Regarding B11, the binding signal came out at 0.656 enrichment R.
Turning to B12, the binding signal is 0.321 enrichment R.
In the case of B13, the binding signal came out at 0.935 enrichment R.
Take B14: the binding signal is 0.972 enrichment R.
B15 returned a binding signal of 0.886 enrichment R.
In turn, B16 registered a binding signal of 1.21 enrichment R.
For B17, the binding signal came to 1.07 enrichment R.
The molecule B18 showed a binding signal of 1.08 enrichment R.
B19 yielded a binding signal of 1.08 enrichment R.
In turn, B20 came in with a binding signal of 0.804 enrichment R.
With B21, the binding signal was found to be 1.49 enrichment R.
The molecule B22 gave a binding signal of 0.991 enrichment R.
